# Data as given in PubChem BioAssay AID686978 (National Center for Advancing Translational Sciences (NCATS), 2013).
# Several values for one entry are separate records, joined by “and”; a condition that tells them apart may be missing. Identical values can stand only once. About 64,000 (15%) of roughly 420,000 compounds were called active. The shares of active, inactive and inconclusive entries below differ from those in the screen. Calls come from the whole dose curve; as a rule, active = well fitted inhibition curve with a large enough effect; inconclusive = small, poorly fitted or top-dose-only effect; inactive = flat fitted curve, though single readings scatter. No potency is given beside an inconclusive call; the fits are too rough.
# Test: qHTS for Inhibitors of human tyrosyl-DNA phosphodiesterase 1 (TDP1): qHTS in cells in absence of CPT; note: nearly all actives have a fitted effect of over 55% in size
# Settings: DT40 Tdp1-/- hTDP1 cells, no CPT, ATP luminescence, 48 h; activity change, negative = growth inhibition: at 46.2 µM (top of the series)
# Outline: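 Growth kinetics read by CellTiter-Glo luminescence after ≥48 hr at 37 °C. Cells: DT40 Tdp1-/- stably carrying human TDP1, 400 per well, compound exposure in the absence of CPT (DMSO vehicle).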
# % is set by controls: 0 for no effect and ±100 for the full control effect; potency is the fitted concentration of half-maximal effect; tags give direction and shape of the fitted curve.
SMILES,Potency,"activity change, negative = growth inhibition"
CCCCCOC(=O)CSc1nc2sc3c(c2c(=O)n1Cc1ccccc1)CC(C)(CC)OC3 (centres undefined),"inconclusive [inhibitor, single point]",–
CC(=O)NC(=S)Nc1ccccc1N1CCN(C(=O)c2ccccc2)CC1,"inconclusive [inhibitor, single point]",–
CCOc1ccc(-c2cc3cc(OC)c(OC)cc3c(C)n2)cc1,"inconclusive [inhibitor, single point]",–
CCN(C[C@H]1N[C@@](Cc2ccccc2)(C(=O)OC)[C@H]2C(=O)N(C)C(=O)[C@@H]12)C(=O)Nc1ccccc1,–,inactive: -25.1%
O=C(COC(=O)c1ccco1)NCc1cccs1,–,inconclusive: -30.8% [inhibitor]
O=S(=O)(c1cccs1)N1CCCCC1,–,inactive: -11.2%
Cc1ccc(NC(=O)CN2C(=O)NC3(CCCCC3)C2=O)cc1S(=O)(=O)N1CCOCC1,–,inconclusive: -30.2% [inhibitor]
Cc1ccc(-c2csc(/C=C3/SC(C)C(=O)N3CC(=O)Nc3ccccc3F)n2)cc1 (centres undefined),"inconclusive [inhibitor, single point]",–
CCCCn1c(N)c(N(CCOC)C(=O)CCCc2nc3ccccc3c(=O)[nH]2)c(=O)[nH]c1=O,–,inactive: -4.3%
CCOc1ccc2nc(/N=C/c3c(C)[nH]n(-c4ccccc4)c3=O)sc2c1,"inconclusive [inhibitor, single point]",–
COc1cc(Cl)c(NS(=O)(=O)c2cc3[nH]c(=O)c(=O)[nH]c3cc2C)c(OC)c1,inactive,–
CCn1ncc(C2=NOC(C(=O)NCc3ccc(Cl)cc3)C2)c1C (centres undefined),active: 5.8 µM,–
CCOc1ccc(CN2C(=O)c3ccccc3C2=O)cc1C(=O)N1CCC(C(N)=O)CC1,–,inactive: -2.8%
COc1cc(C#N)ccc1OCC(=O)Nc1cccc(S(=O)(=O)N2CCCC2)c1,"inconclusive [inhibitor, single point]",–
Cc1ccc(-n2c(=O)c3c4c(sc3n(CC(=O)C(C)(C)C)c2=O)CCCCC4)cc1C,"inconclusive [inhibitor, single point]",–
COc1ccc(/C=C\C(=O)c2c(O)ccc3c(C)cc(=O)oc23)cc1,active: 23.1 µM,–
COc1ccc(CNC(=O)CCc2c(C)nn(-c3ccc(N4CCCC4)nn3)c2C)cc1,"inconclusive [inhibitor, single point]",–
COc1ccc(-c2nc3scc(CCNS(=O)(=O)c4cccs4)n3n2)cc1,active: 18.4 µM,–
CN1CCN(C(=O)c2cc(COc3c(F)cccc3F)on2)CC1c1ccccc1 (centres undefined),"inconclusive [inhibitor, partial curve]",–
Cc1ccccc1C(=O)Nc1nc(-c2cccnc2)cs1,–,inconclusive: -37.9% [inhibitor]
CO/N=C/c1ccc(N2CCN(C(=O)c3cccc(C(F)(F)F)c3)CC2)c([N+](=O)[O-])c1,active: 20.6 µM,–
Cc1cc(C(=O)COc2cccnc2[N+](=O)[O-])c(C)n1Cc1cccs1,"inconclusive [inhibitor, partial curve, poor fit]",–

SMILES,Potency,"activity change, negative = growth inhibition"
CCOC(=O)N1C=CC(C)=C[C@@H]2[C@@H](N3C(=O)c4ccccc4C3=O)C(=O)N21,–,inactive: 0.308%
COc1ccccc1C(=O)O/N=C(/c1ccncc1)c1ccc([N+](=O)[O-])cc1,–,inactive: -2.16%
Cc1ccn2cc(CNS(=O)(=O)c3ccc(Cl)s3)nc2c1,"inconclusive [inhibitor, single point]",–
COc1ccc(N(C(C)C(=O)N2CCCC2)S(C)(=O)=O)cc1 (centres undefined),–,inactive: -5.61%
Cc1ccc(Cc2nnc(SCC(=O)Nc3ccccc3)n(N)c2=O)cc1,–,inactive: -7.57%
COc1ccc(CNC(=S)Nc2cccc(Cl)c2)cc1,"inconclusive [inhibitor, single point]",–
COc1cc(OC)cc(-c2c(C#Cc3ccsc3)c3cc(-c4cnc(OC)nc4)ccc3n2C)c1,"inconclusive [inhibitor, partial curve]",–
O=C(c1ccccc1F)n1c2c(c3ccccc31)CCCC2,"inconclusive [inhibitor, partial curve, poor fit]",–
COc1ccc(CN([C@H](CO)CC(C)C)S(=O)(=O)N(Cc2ccccc2)[C@H](CO)CC(C)C)cc1,active: 11.2 µM and active: 23.1 µM,–
C=CCc1c(C)nc(SC)nc1Nc1ccc(C(C)=O)cc1,active: 20.6 µM,–
COc1cc(C(=O)OC(C)C(=O)Nc2ccc3c(c2)OCCO3)cc(OC)c1OC (centres undefined),"inconclusive [inhibitor, single point]",–
Cc1cccc(Nc2c([N+](=O)[O-])c(=O)n(C)c3ccccc23)c1,"inconclusive [inhibitor, single point]",–
CC(=O)Nc1cccc(C(=O)Nc2cccc3ncccc23)c1,"inconclusive [inhibitor, partial curve]",–
C[C@H](NC(=O)c1ccco1)C(=O)Nc1nc(-c2ccccn2)cs1,active: 13 µM,–
COc1ccc2nc(-c3ccccc3)cc(OC)c2c1,"inconclusive [inhibitor, single point]",–
Oc1c(C(c2ccccc2)N2CCc3ccccc3C2)sc2ncnn12 (centres undefined),"inconclusive [inhibitor, single point]",–
CCOC(=O)c1ccccc1NC(=O)C1CC(=O)N(c2ccccc2)C1 (centres undefined),"inconclusive [inhibitor, single point]",–
NS(=O)(=O)c1cccc(NC(=O)CSc2ncc(C(F)(F)F)cc2Cl)c1,–,inactive: -28.8%
Cc1ccc(C)c(Cn2nnc3c(=O)[nH]c(C4CCN(C(=O)c5cccs5)CC4)nc32)c1,"inconclusive [inhibitor, single point]",–
O=C(Nc1ccc2c(c1)CCCN2C(=O)c1cccs1)c1ccccc1C(F)(F)F,active: 23.1 µM,–
CCOC(=O)Cn1c(=O)oc2cc(S(=O)(=O)N3CCc4ccccc43)ccc21,"inconclusive [inhibitor, single point]",–
CC(C)C[C@H](NC(=O)c1[nH]cnc1C(=O)N[C@@H](C)C(=O)OCc1ccccc1)C(=O)OCc1ccccc1,"inconclusive [inhibitor, single point]",–
